The text below walks through data of the supplement of paper PMC10369915.

This is one part of the list. Rule as the data show it: active = 3.2 or more and inactive = the rest. Only a few entries rise above the background.
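Also: displayed peptides selected on beads carrying the immobilized SH2 domain, with library peptides lacking any tyrosine serving as negative controls.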

In one assay the target is SHP2 C-SH2 domain E139D. Nature of the assay: enrichment score (SH2-bound / input frequency) (ratio); bacterial display of known human phosphotyrosine sites (pTyr-Var adds point mutants) read by sequencing; higher = stronger binding; tyrosines were phosphorylated by kinases first. The following applies: peptide library: pTyr-Var.
With DPEAAYTTRGG [EPHA3_Y779], the enrichment score was inactive: 0.326.
Consider RWQQLYDTLNA [EIF3M_Y351_Q346R], for which the enrichment score is inactive: 0.789.
Still for that read-out and setting: next, DPEGAYTTRGG [EPHA3_Y779_A777G]: inactive: 0.359.
In the case of SVKVYYKKCWS [EPHA7_Y202], the enrichment score is inactive: 0.622.
Regarding LDLSFYPTSSS [EMD_Y182_YF], the enrichment score is inactive: 1.5.
For LDLSYYHTSSS [EMD_Y182_P183H], the enrichment score was inactive: 0.827.
Consider EKLQQYLAPGM [EPHB3_Y600_I601L], for which the enrichment score was inactive: 0.846.
As for SLDLSYFTTSS [EMD_Y181_P183T_YF], the enrichment score was inactive: 1.5.
For the molecule ERDYTYDELLN [EIF2S2_Y176_E177D], the enrichment score was inactive: 0.708.
TAALWYIYLHT [ENG_Y612_S615L]: the enrichment score was inactive: 0.92.
As to KGIDRYNPENL [EIF3K_Y21], the enrichment score was inactive: 0.931.
For LDLSYYTTSSS [EMD_Y182_P183T], the enrichment score was inactive: 1.18.
With SLDLSYFPTSS [EMD_Y181_YF], the enrichment score was inactive: 1.02.
On to FTGVEYSSCDT [EPHA3_Y937], for which the enrichment score was inactive: 0.759.
In the case of SVKVYYKKCWF [EPHA7_Y202_S207F], the enrichment score is inactive: 0.55.
Take GVPLGYPIKAP [ELN_Y206]: the enrichment score was inactive: 0.876.
Take INNKMYDPKMN [ENPP1_Y280_D276N]: the enrichment score was inactive: 0.86.
For the molecule EFGEVYKGMLK [EPHA2_Y628], the enrichment score is inactive: 0.538.

A further assay addresses SHP2 C-SH2 domain wild-type. The assay is described as above. To be noted: peptide library: pTyr-Var.
For the molecule DPEAAYTTRGG [EPHA3_Y779], the enrichment score is inactive: 0.362.
Turning to RWQQLYDTLNA [EIF3M_Y351_Q346R], the enrichment score was inactive: 1.19.
On to DPEGAYTTRGG [EPHA3_Y779_A777G], for which the enrichment score is inactive: 0.511.
Turning to SVKVYYKKCWS [EPHA7_Y202], the enrichment score was inactive: 0.976.
In the case of LDLSFYPTSSS [EMD_Y182_YF], the enrichment score is inactive: 1.2.
For LDLSYYHTSSS [EMD_Y182_P183H], the enrichment score is inactive: 0.67.
Regarding EKLQQYLAPGM [EPHB3_Y600_I601L], the enrichment score is inactive: 0.844.
For the molecule SLDLSYFTTSS [EMD_Y181_P183T_YF], the enrichment score is inactive: 1.22.
As to ERDYTYDELLN [EIF2S2_Y176_E177D], the enrichment score is inactive: 0.672.
For the molecule TAALWYIYLHT [ENG_Y612_S615L], the enrichment score is inactive: 1.27.
KGIDRYNPENL [EIF3K_Y21]: the enrichment score is inactive: 0.854.
Same read-out and setting: next, LDLSYYTTSSS [EMD_Y182_P183T]: inactive: 1.2.
As to SLDLSYFPTSS [EMD_Y181_YF], the enrichment score was inactive: 0.986.
Same read-out and setting: next, FTGVEYSSCDT [EPHA3_Y937]: inactive: 0.935; SVKVYYKKCWF [EPHA7_Y202_S207F]: inactive: 0.8; GVPLGYPIKAP [ELN_Y206]: inactive: 0.771.
On to INNKMYDPKMN [ENPP1_Y280_D276N], for which the enrichment score was inactive: 0.62.
Regarding EFGEVYKGMLK [EPHA2_Y628], the enrichment score was inactive: 0.696.

In a further assay the target is SHP2 N-SH2 domain L43F. The description is as above. The following applies: peptide library: pTyr-Var.
On to DPEAAYTTRGG [EPHA3_Y779], for which the enrichment score was inactive: 0.32.
With RWQQLYDTLNA [EIF3M_Y351_Q346R], the enrichment score is inactive: 0.82.
For DPEGAYTTRGG [EPHA3_Y779_A777G], the enrichment score was inactive: 0.388.
SVKVYYKKCWS [EPHA7_Y202]: the enrichment score was inactive: 0.622.
With LDLSFYPTSSS [EMD_Y182_YF], the enrichment score was inactive: 1.13.
The same measure, in the same setting: next, LDLSYYHTSSS [EMD_Y182_P183H]: inactive: 0.635; EKLQQYLAPGM [EPHB3_Y600_I601L]: inactive: 0.99; SLDLSYFTTSS [EMD_Y181_P183T_YF]: inactive: 0.991.
Regarding ERDYTYDELLN [EIF2S2_Y176_E177D], the enrichment score is inactive: 0.568.
For the molecule TAALWYIYLHT [ENG_Y612_S615L], the enrichment score was inactive: 1.1.
Take KGIDRYNPENL [EIF3K_Y21]: the enrichment score is inactive: 0.978.
As to LDLSYYTTSSS [EMD_Y182_P183T], the enrichment score was inactive: 1.46.
For the molecule SLDLSYFPTSS [EMD_Y181_YF], the enrichment score was inactive: 1.11.
With FTGVEYSSCDT [EPHA3_Y937], the enrichment score was inactive: 0.961.
For the molecule SVKVYYKKCWF [EPHA7_Y202_S207F], the enrichment score is inactive: 0.717.
As for GVPLGYPIKAP [ELN_Y206], the enrichment score is inactive: 0.684.
For the molecule INNKMYDPKMN [ENPP1_Y280_D276N], the enrichment score was inactive: 0.728.
Regarding EFGEVYKGMLK [EPHA2_Y628], the enrichment score was inactive: 0.472.

Another assay addresses SHP2 N-SH2 domain T42A. The description is as above. The following applies: peptide library: pTyr-Var.
Consider DPEAAYTTRGG [EPHA3_Y779], for which the enrichment score is inactive: 0.361.
Turning to RWQQLYDTLNA [EIF3M_Y351_Q346R], the enrichment score is inactive: 1.09.
For DPEGAYTTRGG [EPHA3_Y779_A777G], the enrichment score was inactive: 0.506.
SVKVYYKKCWS [EPHA7_Y202]: the enrichment score is inactive: 0.549.
In the case of LDLSFYPTSSS [EMD_Y182_YF], the enrichment score is inactive: 0.89.
As to LDLSYYHTSSS [EMD_Y182_P183H], the enrichment score is inactive: 0.821.
Take EKLQQYLAPGM [EPHB3_Y600_I601L]: the enrichment score is inactive: 0.587.
Take SLDLSYFTTSS [EMD_Y181_P183T_YF]: the enrichment score is inactive: 1.18.
Still for that read-out and setting: next, ERDYTYDELLN [EIF2S2_Y176_E177D]: inactive: 0.705; TAALWYIYLHT [ENG_Y612_S615L]: inactive: 0.932; KGIDRYNPENL [EIF3K_Y21]: inactive: 0.759.
For LDLSYYTTSSS [EMD_Y182_P183T], the enrichment score was inactive: 1.21.
Still for that read-out and setting: as for SLDLSYFPTSS [EMD_Y181_YF], the figure is inactive: 0.852.
Turning to FTGVEYSSCDT [EPHA3_Y937], the enrichment score is inactive: 2.36.
Consider SVKVYYKKCWF [EPHA7_Y202_S207F], for which the enrichment score is inactive: 0.626.
In the case of GVPLGYPIKAP [ELN_Y206], the enrichment score is inactive: 0.631.
With INNKMYDPKMN [ENPP1_Y280_D276N], the enrichment score was inactive: 0.659.
Consider EFGEVYKGMLK [EPHA2_Y628], for which the enrichment score was inactive: 0.506.

A further assay has as its target SHP2 N-SH2 domain T52S. The assay is described as above. To be noted: peptide library: pTyr-Var.
DPEAAYTTRGG [EPHA3_Y779]: the enrichment score was inactive: 0.4.
Turning to RWQQLYDTLNA [EIF3M_Y351_Q346R], the enrichment score was inactive: 0.883.
Still for that read-out and setting: as for DPEGAYTTRGG [EPHA3_Y779_A777G], the figure is inactive: 0.323; as for SVKVYYKKCWS [EPHA7_Y202], inactive: 0.509.
As for LDLSFYPTSSS [EMD_Y182_YF], the enrichment score was inactive: 1.38.
With LDLSYYHTSSS [EMD_Y182_P183H], the enrichment score was inactive: 0.982.
The same measure, in the same setting: as for EKLQQYLAPGM [EPHB3_Y600_I601L], the figure is inactive: 0.9; as for SLDLSYFTTSS [EMD_Y181_P183T_YF], inactive: 1.17.
Consider ERDYTYDELLN [EIF2S2_Y176_E177D], for which the enrichment score is inactive: 0.531.
Same read-out and setting: as for TAALWYIYLHT [ENG_Y612_S615L], the figure is inactive: 0.781.
The same measure, in the same setting: next, KGIDRYNPENL [EIF3K_Y21]: inactive: 0.882; LDLSYYTTSSS [EMD_Y182_P183T]: inactive: 1.28; SLDLSYFPTSS [EMD_Y181_YF]: inactive: 1.15.
As to FTGVEYSSCDT [EPHA3_Y937], the enrichment score was inactive: 0.757.
The same measure, in the same setting: next, SVKVYYKKCWF [EPHA7_Y202_S207F]: inactive: 0.552.
Take GVPLGYPIKAP [ELN_Y206]: the enrichment score is inactive: 0.627.
As to INNKMYDPKMN [ENPP1_Y280_D276N], the enrichment score was inactive: 0.724.
For the molecule EFGEVYKGMLK [EPHA2_Y628], the enrichment score was inactive: 0.726.

For another assay, the target named is SHP2 N-SH2 domain wild-type. The assay is described as above. The following applies: peptide library: pTyr-Var.
In the case of DPEAAYTTRGG [EPHA3_Y779], the enrichment score was inactive: 0.444.
For RWQQLYDTLNA [EIF3M_Y351_Q346R], the enrichment score is inactive: 1.13.
With DPEGAYTTRGG [EPHA3_Y779_A777G], the enrichment score was inactive: 0.522.
Same read-out and setting: as for SVKVYYKKCWS [EPHA7_Y202], the figure is inactive: 1.12.
With LDLSFYPTSSS [EMD_Y182_YF], the enrichment score is inactive: 1.47.
Still for that read-out and setting: next, LDLSYYHTSSS [EMD_Y182_P183H]: inactive: 0.616.
Consider EKLQQYLAPGM [EPHB3_Y600_I601L], for which the enrichment score is inactive: 0.797.
The same measure, in the same setting: next, SLDLSYFTTSS [EMD_Y181_P183T_YF]: inactive: 1.18; ERDYTYDELLN [EIF2S2_Y176_E177D]: inactive: 0.989.
For the molecule TAALWYIYLHT [ENG_Y612_S615L], the enrichment score is inactive: 1.19.
KGIDRYNPENL [EIF3K_Y21]: the enrichment score is inactive: 0.789.
Still for that read-out and setting: as for LDLSYYTTSSS [EMD_Y182_P183T], the figure is inactive: 1.04.
Turning to SLDLSYFPTSS [EMD_Y181_YF], the enrichment score is inactive: 1.21.
On the same count and under the same terms, as for FTGVEYSSCDT [EPHA3_Y937], the figure is inactive: 0.704; as for SVKVYYKKCWF [EPHA7_Y202_S207F], inactive: 0.909; as for GVPLGYPIKAP [ELN_Y206], inactive: 0.774.
Consider INNKMYDPKMN [ENPP1_Y280_D276N], for which the enrichment score is inactive: 0.685.
As to EFGEVYKGMLK [EPHA2_Y628], the enrichment score was inactive: 0.621.
